Experimental data: publication PMC12040169 (PLOS Biology, 2025)
The list shows a part of the results.

The molecules below were run on T1, C. trachomatis L2/434/Bu expressing GFP (CTL2-GFP). Settings: total inclusion area; 28.5 h, 10 µM; inhibitor.
T1 construct: L2/434/Bu GFP intracellular growth in HeLa cells
Parameters: species or system HeLa; C. trachomatis total inclusion area by high-content imaging, normalised to DMSO
Procedure, shortened: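 After bulk GFP and resorufin fluorescence reads, cells were fixed, stained with Hoechst and imaged by high-content microscopy. Inclusion area and number (GFP) stood in for chlamydial growth, nuclei count (Hoechst) for host cell viability. MICs were derived as for the bulk readout.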

SMILES	% of control remaining
COC(=O)C1CCCN1CC(=O)NCc1ccc(OCC(N)=O)cc1 (stereo not shown) [CBK304970]	43.6287
CCN1CCN(c2c(Cl)cccc2NC(=O)c2ccc(-c3cccc([N+](=O)[O-])c3)o2)CC1 [CBK268596]	108.884
Cc1ocnc1C(=O)NCC1CCN(c2ccccc2F)C1 (stereo not shown) [CBK304671]	83.4878
CCS(=O)(=O)N1CCC(NC(=O)NC(C)c2ccccc2Cl)CC1 (stereo not shown) [CBK242304]	63.3122
CSc1nc(NC(=O)C(C)c2ccccc2)cc(N2CCNCC2)n1 (stereo not shown) [CBK026742T]	90.1208
O=c1[nH]c(=O)c2cc(S(=O)(=O)N3CCCC(CN4CCCC4)C3)ccc2[nH]1 (stereo not shown) [CBK286392]	135.018
C=CCn1c(-c2sc(NC(=O)c3ccc(C)c(C)c3)nc2C)n[nH]c1=S [CBK295294]	113.382
Cc1cc(C)c(S(=O)(=O)Nc2nnc(C(F)(F)F)s2)c(C)c1 [CBK045507]	101.772
COCC(=O)N1CCC(c2cc3nc(C(F)(F)F)ccc3[nH]2)CC1 [CBK282185]	79.2999
c1ccc(Oc2ccccc2-c2cc(N3CCN(c4ccccn4)CC3)ncn2)cc1 [CBK091083]	110.428
Cc1nsc2c1[C@H]1[C@H](O)[C@H](O)C[C@H]1C1(CCC1)N2 [CBK303258]	72.0354
COc1cc(C=CC(=O)O)ccc1OCC(=O)NCC(C)C [CBK296721]	106.803
CCc1nnc(CN(CC2CCCO2)C2CCC(C)CC2)n1C (stereo not shown) [CBK304475]	106.238
COc1cc2nc(NC(=O)c3ccccc3)sc2cc1OC [CBK287701]	86.7418
C=CCOC(=O)C1=C(C)OC(N)=C(C(=O)OCc2ccccc2)C12C(=O)Nc1ccccc12 (stereo not shown) [CBK262527]	62.4241
CC(C)CCn1c(=O)c(C(=O)Nc2ccccc2S(N)(=O)=O)c(O)c2ccccc21 [CBK262294]	80.4103
CCOC(=O)c1ccccc1NS(=O)(=O)c1cc(Cl)sc1Cl [CBK045448]	56.619
O=C(N[C@@H](Cn1cc(Cl)c(=O)[nH]c1=O)C(=O)O)C1CCCCC1 [CBK289648]	129.259
CC(=S)NCC1CC(c2ccc(N3CC[S+]([O-])CC3)c(F)c2)=NO1 (stereo not shown) [CBK017992]	55.7962
COc1nc(OC)nc(OC2=CC(=O)CC(C)(C)C2)n1 [CBK020772]	83.8185
O=C(O)c1cc(-c2ccc(-c3ccc(Cl)c(C(F)(F)F)c3)o2)nc2ccc(F)cc12 [CBK300501]	119.549
CCOC(=O)N1CCN(C2CCCN(Cc3cnc(N(C)C)s3)C2)CC1 (stereo not shown) [CBK307041]	103.367
CC(=O)NCC1CC(=O)N(c2ccc(Br)cc2)C1 (stereo not shown) [CBK008134]	118.817
O=C(CCN1C(=O)COc2ccccc21)NCCCN1CCN(c2ccccc2F)CC1 [CBK294469]	109.166
CCn1nc(C)c(CN2CCCC(c3cc4cccnc4[nH]3)C2)c1C (stereo not shown) [CBK284977]	94.7397
Cc1ccc(CN(CCCN(C)C)Cc2cnc(C)n2C)o1 [CBK283188]	101.943
O=C1NC(=S)N/C1=C/c1cc2c(cc1Cl)OCO2 [CBK261818]	71.1347

SMILES	% of control remaining
O=C(O)c1cccc(NC(=O)c2cnc(-c3ccccc3)c(-c3ccco3)c2)c1 [CBK036710]	122.406
O=C(C[S+]([O-])c1nc2ccccc2[nH]1)N1CCOCC1 (stereo not shown) [CBK016397]	100.849
CCOc1ccc(S(=O)(=O)N2CCC(C(=O)N3CCOCC3)CC2)cc1Cl [CBK270288]	124.78
CN1CCC(C(=O)Nc2cccc(Cn3cccn3)c2)C1 (stereo not shown) [CBK281991]	92.4762
O=C(Nc1ccc2[nH]c(C3CCCCC3)nc2c1)C1CCCCC1 [CBK020680]	60.9375
COc1nccnc1/C=C/c1ccccc1 [CBK106876]	90.8473
c1ccc(CC(NCc2c[nH]c3ccccc23)c2ccccc2)cc1 (stereo not shown) [CBK262087]	76.6872
CCC(CN1CCOCC1)NC(=O)Cc1c(C)[nH]c2ccc(F)cc12 (stereo not shown) [CBK282774]	105.477
Cc1ncsc1CCOc1nc2cc(Cl)c(Cl)cc2nc1NC(C)C [CBK115744]	103.807
O=c1[nH]c2ncc(-c3cccc(OC(F)(F)F)c3)nc2n1C1CCCCC1 [CBK064187]	117.408
O=CN1CCc2c([nH]c3ccccc23)C12CCCN(Cc1ccc(C(F)(F)F)cc1)C2 (stereo not shown) [CBK039587]	97.5608
COc1cc(C(=O)N2CCC3(CC2)NC(=O)c2cc(C)ccc2O3)ccc1C [CBK166276]	65.7705
COc1cccc(OC)c1-c1cn2ccnc2c(NCCc2ccccn2)n1 [CBK066173]	86.6959
O=C(CN(Cc1ccccc1Cl)S(=O)(=O)c1ccc(Cl)cc1)NC1CCCCC1 [CBK264659]	99.0998
CCCNC(=O)Nc1ccc(Cl)c(C(=O)O)c1 [CBK287009]	103.523
O=C(CCCSC1=NC(C(F)(F)F)CC(c2ccco2)N1)Nc1ccc(Cl)c(Cl)c1 (stereo not shown) [CBK268858]	100.678
CCc1nc(N)nc(N2CCC3(CCC(CNC(C)=O)O3)CC2)c1C (stereo not shown) [CBK307168]	40.9718
Cc1ccc(S(=O)(=O)N(CC(=O)N2CCN(C)CC2)Cc2ccc(Cl)cc2Cl)cc1 [CBK265144]	116.689
O=C(CC1(O)C(=O)N(CCc2ccccc2)c2ccc(Br)cc21)c1ccncc1 (stereo not shown) [CBK293976]	115.231
CCNc1cncc(-c2ccc(OC)cc2)n1 [CBK065370]	117.915
CCn1nc(C)c(-c2cncn2CCn2nc(C)c(Cl)c2C)c1C [CBK281768]	107.284
COc1c(C)cccc1C(=O)NC(=S)Nc1sc2c(c1C(N)=O)CCC2 [CBK265587]	102.416
C#CCNC(=O)[C@@H]1Cc2cn(Cc3nccn3C)c3cccc(c23)[C@H](CC(C)C)N1 [CBK289424]	101.926
Cc1ccc2[nH]c3c(c2c1)CCNC31CCN(CC2CCCCO2)CC1 (stereo not shown) [CBK039545]	64.3335
Cc1ccc(F)c(S(=O)(=O)NC(C)Cc2ccccn2)c1 (stereo not shown) [CBK281427]	95.8154
O=C(OCc1ccccc1)N1CCC(C2OCc3cc(-c4ccc(C(=O)N5CCCCC5)cc4)ccc3O2)CC1 (stereo not shown) [CBK153262]	84.1888
O=C(CC1CCCCC1)Nc1snnc1-c1ccc(Cl)cc1 [CBK153245]	109.916

SMILES	% of control remaining
CCN(CC)CCN1C(=O)C(O)=C(C(=O)c2cc3ccccc3o2)C1c1ccccn1 (stereo not shown) [CBK266413]	121.769
CN1CCN(c2ccc(NC(=O)c3ccc(OCc4ccccc4)cc3)cc2Cl)CC1 [CBK269080]	65.4641
COc1cccc(OC)c1-c1cn2ccnc2c(N[C@H](CO)C(C)C)n1 [CBK036586]	71.9898
CN1CCN(N/C=C2/C(=O)N(c3ccc([N+](=O)[O-])cc3)N=C2c2ccccc2)CC1 [CBK262763]	89.1146
CCOC(=O)c1c(NC(=O)Cn2cnc([N+](=O)[O-])n2)sc2c1CCC2 [CBK263042]	107.429
CC(C)n1cc(CN2CCNC(=O)C2c2ccccc2C(F)(F)F)nn1 (stereo not shown) [CBK304732]	90.0091
Cc1ccc([N+](=O)[O-])cc1/C=C(/C#N)c1nc2ccccc2s1 [CBK267085]	62.2669
O=C(Nc1ccc2nonc2c1)N1CCOCC1 [CBK057530]	64.9747
CCOc1cc(C=Cc2cc(C(=O)O)c3ccccc3n2)ccc1OC(F)F [CBK296952]	93.1197
CSc1nc2ccccc2c2nc(-c3ccncc3)nn12 [CBK288566]	84.4184
COc1ccc(N2C(=S)N(CC3CCCCC3)[C@H]3[C@H]4OC(=O)[C@H](C[C@H]4O)[C@H]32)cc1 [CBK288939]	123.072
CCn1c2ccccc2c2cc(CN(C)Cc3ccccc3)ccc21 [CBK261901]	89.7434
CCCCN(C(C)=O)c1c(CC)nc2ccc(C(=O)N(C)CCN(C)C)cn12 [CBK145739]	94.9772
O=C(c1ccc2ncccc2c1)N1CCN(Cc2ccccc2)CC1 [CBK200175]	119.602
C[S+]([O-])c1sc(Cl)c2c1C(=O)CCC2 (stereo not shown) [CBK005657]	50.7169
CC(=O)N1CCc2cc(-c3cc4ccccn4c3)ccc21 [CBK285224]	99.4216
Cc1cc(O)cc(C2CCCN(C(=O)c3ccc(F)c(F)c3)C2)n1 (stereo not shown) [CBK283406]	102.695
CCCc1ccc(C(C)NC(=O)C2CC2C)cc1 (stereo not shown) [CBK057847]	93.7782
CCC(CN1CCN(C)CC1)NC(=O)Cc1ccc2c(c1)CCC2 (stereo not shown) [CBK282784]	93.9043
CN(C)CCN(C)c1cncc(-c2cccc(N)c2)n1 [CBK065270]	111.491
CCOC(=O)c1cnn2c(O)cc(CN3CCCCC3)nc12 [CBK305585]	105.964
O=S(=O)(Nc1cccnc1)N1CCOCC1 [CBK269362]	89.0352
COC(=O)c1ccsc1NS(=O)(=O)c1ccc(Br)cc1 [CBK039058]	102.51
COc1ccccc1CNCCCN1CCOCC1 [CBK278310C]	109.953
CN(C)Cc1ccc(C(=O)NCC(C)(C)N2CCCCC2)cc1 [CBK281865]	90.077
